Test results from PubChem BioAssay (NCI).
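96-well plates; 48 h exposure; 5 concentrations. Endpoints by linear interpolation between flanking doses. Not reached: highest tested concentration assigned. GI50 marks 50% less growth.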

Tested on: NCI-H322M lung
Assay: NCI tumour cell line growth inhibition, 48 h

COc1cc(Cc2nccc3cc(OC)c(OC)cc23)c(C(C)=O)cc1OC showed a GI50 of 38.5 µM.
